Assay results: the RNAGym collection of RNA variant scans (doi:10.1073/pnas.2313332121)
Variants at the background level are over-represented here.

B1: TPR 5TU (parent)
chain: GGAUCUUCUCGAUCUAACAAAAAAGACAAAUCUGCCACAAAGCUUGAGAGCAUCUUCGGAUGCAGAGGCGGCAGCCUUCGGUGGCGCGAUAGCGCCAACGUUCUCAACUAUGACACGCAAAACGCGUGCUCCGUUGAAUGGAGUUUAUCAUG

Variants of: B1
Assay: polymerase ribozyme fitness, log enrichment relative to wild type (log ratio); higher = more active; in vitro selection for triplet polymerase activity
Summary of the method: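 Mutant libraries of both subunits of a heterodimeric triplet polymerase ribozyme were PCR-built, transcribed, and selected once in triplicate, with frozen incubation at −7 °C and capture of gel-excised extended constructs on streptavidin beads before RT-PCR. Illumina sequencing of input and output libraries was filtered to genotypes with ≥10 input reads and ≥1 read per output. Fitness is the logarithm of genotype enrichment over wild-type enrichment, using inverse-variance-weighted replicate averages. The logarithm is base 2.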

Point of comparison: C35G C96U, “polymerase ribozyme fitness (log ratio)” value -4.18. Against it:
- C35A G86U A110U G141A — lower, ≤ -4.2
- C35A G86U C87G A97U C105U A119U A150C — lower, ≤ -4.2
- C35A G88U C103U C125G — lower, ≤ -4.2
- C35A G94C — higher, -2.74
- C35A G143A — lower, ≤ -4.2
- C35A U44A G46U G58A A89U G92A G100A C116U A122G — lower, ≤ -4.2
- C35A U44A U82A C87U A89C A120U — lower, ≤ -4.2
- C35A U53A G62A — lower, ≤ -4.2
- C35A U55A C87U G88U C99A C108U G124U A147U U148G U151A — lower, ≤ -4.2
- C35A U56A C93U A115U A120C U148A — lower, ≤ -4.2
- C35A U90A U111C A137C — lower, ≤ -4.2
- C35A U90C C96U A110G A121G — lower, ≤ -4.2
- C35A U109G C118U U146A — lower, ≤ -4.2
- C35A U134C — higher, -3.61
- C35A U144G U151A — lower, ≤ -4.2
- C35G A37C A52G G86U A97G — within 0.2 log units, -4.2
- C35G A40C U55G C85U G92A U127G — lower, ≤ -4.2
- C35G A47C C76U G80A C87A U111G C114G G140A — lower, ≤ -4.2
- C35G A47C G70A C87G A115U G143U A150C — lower, ≤ -4.2
- C35G A49C U90C A115C — lower, ≤ -4.2
- C35G A49G A64C G65C C93A — lower, ≤ -4.2
- C35G A49G C76U G86U G88A G117U — lower, ≤ -4.2
- C35G A49U G124C — lower, ≤ -4.2
- C35G A52C A60C — lower, ≤ -4.2
- C35G A60C — within 0.2 log units, -3.99
- C35G A73C C99G U146G — lower, ≤ -4.2
- C35G A91G U151G — lower, ≤ -4.2
- C35G A91U G92A C99A U102C A137U G143A — lower, ≤ -4.2
- C35G C54A U56A C79G C99U G126U G143U — lower, ≤ -4.2
- C35G C54U U55A C95A U102G C114U U134A — lower, ≤ -4.2
- C35G C54U U61A C93A A98G A138G — lower, ≤ -4.2
- C35G C57A A122G U148A G152U — lower, ≤ -4.2
- C35G C63A C93U — within 0.2 log units, -4.16
- C35G C63A G83C C85A — lower, ≤ -4.2
- C35G C72U C95U A120U U146G A150C — lower, ≤ -4.2
- C35G C75A C95U U102G U151C — lower, ≤ -4.2
- C35G C75G A121U — lower, ≤ -4.2
- C35G C76A — within 0.2 log units, -4.13
- C35G C76U — within 0.2 log units, -3.99
- C35G C79A G83A A121U — lower, ≤ -4.2
- C35G C85A C105G A113U — lower, ≤ -4.2
- C35G C85G A89G A122G — lower, ≤ -4.2
- C35G C85U A113G C114U A115U C123U — lower, ≤ -4.2
- C35G C87G U102A A113G — lower, ≤ -4.2
- C35G C87U — the same, -4.18
- C35G C95U A115G U145A — lower, ≤ -4.2
- C35G G42A U130G C131A — within 0.2 log units, -4.12
- C35G G48A A49C A89C C105U A107U — lower, ≤ -4.2
- C35G G48C U77G C85U A113U — lower, ≤ -4.2
- C35G G50A U61G G124C — lower, ≤ -4.2
- C35G G58A G59U A60U A73C C116G C123A G140C — lower, ≤ -4.2
- C35G G58C G92U C125G A150U — lower, ≤ -4.2
- C35G G59C G68C G124C G136A U151G — lower, ≤ -4.2
- C35G G59U C95U C103A C114U C125G G143U U144G — lower, ≤ -4.2
- C35G G59U G88C G152C — lower, ≤ -4.2
- C35G G71A G94C — lower, ≤ -4.2
- C35G G74A U90A C95U — lower, ≤ -4.2
- C35G G83C C103A — lower, ≤ -4.2
- C35G G84A C93U C108G A137U — lower, ≤ -4.2
- C35G G86U C116U C129U — lower, ≤ -4.2
- C35G G94C U101C A115C — lower, ≤ -4.2
- C35G G141C — higher, -3.66
- C35G U44A C63A C95G C103A C116A U151C — lower, ≤ -4.2
- C35G U53A A97U C108A — lower, ≤ -4.2
- C35G U53C C87G G136U A137G — lower, ≤ -4.2
- C35G U55A C72A C85U G133C U144C — lower, ≤ -4.2
- C35G U55A C85U — lower, ≤ -4.2
- C35G U55A G58A G86U A147U — within 0.2 log units, -4.06
- C35G U55C C96G — lower, ≤ -4.2
- C35G U56A G58A A91C — lower, ≤ -4.2
- C35G U56G C87A U90G — lower, ≤ -4.2
- C35G U61A C87G A97G A98U — lower, ≤ -4.2
- C35G U61C C96U — lower, ≤ -4.2
- C35G U78A U90A C114A C116G C125G — lower, ≤ -4.2
- C35G U139C — lower, ≤ -4.2
- C35U A39C C85A C116A — lower, ≤ -4.2
- C35U A39C G50A G80C G84C A89C C93G C96G — lower, ≤ -4.2
- C35U A39C G59A A91C C114G A147C — lower, ≤ -4.2
- C35U A39G C51U C95G A138C — lower, ≤ -4.2
- C35U A40C U45G G50A G88U A91G G140C — lower, ≤ -4.2
- C35U A40U C57U A60G G126U G141C U145C — lower, ≤ -4.2
- C35U A40U U55A C99A U101G G152A — lower, ≤ -4.2
- C35U A41G C85U G141U — higher, 1.25
